Experimental data from PubChem BioAssay AID760 (NMMLSC, 2007).
The whole screen tested about 190,000 compounds, of which about 360 (0.19%) were called active. Inconclusive means that the source gave no clear call. Such entries were picked first, then a sample of the others.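 The calls were made as follows: active = GTP binding activity at least 20 points away from 100%, either lowered or raised; inconclusive = signal likely due to the compound's own green fluorescence; inactive = the rest.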

Each molecule was assayed against Ras-related protein Rab-2A (Canis lupus familiaris) (UniProt P61105) (assay: Rab2 wt fluorescent GTP binding changes, either direction – biochemical, dog, bead-based flow cytometry, multiplex, primary screen (AID 760;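 also: 0% = beads with excess unlabeled GTP and 100% = no-compound control corrected for plate trend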)). Settings: GST-Rab2 wt beads, Bodipy-GTP binding, at 10 µM.
In the case of `O=c1c2sccc2nc(SCc2cc(=O)n3cc(Cl)ccc3n2)n1Cc1ccccn1`, the GTP binding activity is reported as inconclusive: 98%.
With `N#C/C(=C\c1ccncc1)c1nc2ccccc2[nH]1` the GTP binding activity was active: 42%.
`CC(C)C1=NOC(C(=O)N2CCC(N3CCC(C(=O)N4CCOCC4)CC3)CC2)C1` (stereo not drawn) was tested, and the GTP binding activity was inconclusive: 95%.
With `O=C(O)CCc1ccc(-c2cccs2)n1Cc1ccco1` the GTP binding activity was inconclusive: 114%.
With `Cc1nc2c(C)cccn2c1C(=O)c1ccccc1` the GTP binding activity was inactive: 97%.
In the case of `C=CCN1C(=O)/C(=C2/Sc3ccccc3N2CCCS(=O)(=O)O)SC1=S`, the GTP binding activity is reported as inconclusive: 84%.
For `O=C(Oc1cccc(O)c1)C1CCCCC1`, the GTP binding activity was inconclusive: 79%.
For `COc1ccc(C2SCCN2C(=S)Nc2ccc(Cl)cc2)cc1` (stereo not drawn), the GTP binding activity was inconclusive: 101%.
In the case of `O=C(NCc1ccccc1)c1cc(=O)c2ccccc2o1`, the GTP binding activity is reported as inconclusive: 94%.
In the case of `COCCn1c(N)c(C(=O)NCc2cccs2)c2nc3ccccc3nc21`, the GTP binding activity is reported as inconclusive: 76%.
`COc1ccc(OC)c(CN2CCC(CNC(=O)Nc3cccc(Cl)c3)CC2)c1` was tested, and the GTP binding activity was inconclusive: 98%.
For `CCOc1ccccc1N1CCN(C(=O)Nc2ccc(Cl)c(Cl)c2)CC1`, the GTP binding activity was inconclusive: 89%.
`O=C(NC1CC1)C1CCN(C2CCN(C(=O)/C=C/c3cccs3)CC2)CC1` was tested, and the GTP binding activity was inconclusive: 97%.
For `Cc1nonc1OCCCNc1ccc([N+](=O)[O-])cc1Cl`, the GTP binding activity was inactive: 99%.
`Cc1cc(/C=C(/C#N)c2nc3ccccc3[nH]2)c(C)n1-c1cc(C(=O)O)cc(C(=O)O)c1` was tested, and the GTP binding activity was inconclusive: 79%.
`CCN(CC)S(=O)(=O)c1cccc(-c2nnc(SCCOc3ccccc3C)o2)c1` was tested, and the GTP binding activity was inconclusive: 91%.
In the case of `O=C(NCCc1ccccc1)C(=O)N/N=C/c1ccccc1C(F)(F)F`, the GTP binding activity is reported as inconclusive: 102%.
For `O=C(c1nn(Cc2ccccc2)c(=O)c2ccccc12)N1CCN(C/C=C/c2ccccc2)CC1`, the GTP binding activity was inactive: 103%.
In the case of `O=C(CSc1ccc2nnc(-c3ccccc3)n2n1)N1CCCc2ccccc21`, the GTP binding activity is reported as inconclusive: 87%.
In the case of `O=C1CC(N(CCc2ccccc2)C(=S)Nc2cc(Cl)ccc2Cl)C(=O)N1c1c(Cl)cccc1Cl` (stereo not drawn), the GTP binding activity is reported as inactive: 96%.
With `O=C(OCCCN=C1NS(=O)(=O)c2ccccc21)c1ccc([N+](=O)[O-])cc1` the GTP binding activity was inactive: 96%.
For `Cc1cc(N2C(=O)CC(Cc3ccc(Cl)cc3)C2=O)no1` (stereo not drawn), the GTP binding activity was inconclusive: 104%.
For `CC1(C)CC(=O)C2=C(C1)OC(c1ccncc1)C(C#N)=C2N` (stereo not drawn), the GTP binding activity was inconclusive: 99%.
For `Cc1[nH][nH]c(=O)c1C(c1ccc(-c2ccc(Cl)c(C(=O)O)c2)o1)c1c(C)[nH][nH]c1=O`, the GTP binding activity was inconclusive: 88%.
`S=C(NCC1CCCO1)Nc1ccccc1` (stereo not drawn) was tested, and the GTP binding activity was inconclusive: 96%.
With `CCN(CC)CCCn1c(=S)[nH]c2cc(C(=O)OC)ccc2c1=O` the GTP binding activity was inconclusive: 104%.
In the case of `COc1ccc(/C(N)=N/O)c(OC)c1`, the GTP binding activity is reported as inactive: 96%.
`COCCN1C(=O)/C(=C/c2ccc(N3CCCC3)cc2C)SC1=S` was tested, and the GTP binding activity was inconclusive: 205%.
`Cc1cc(-c2ccccc2)c(C#N)c(N)n1` was tested, and the GTP binding activity was inconclusive: 90%.
For `CCCc1[nH]nc2c1C(c1ccc(OC)c(Cn3nnc4ccccc43)c1)C(C#N)=C(N)O2` (stereo not drawn), the GTP binding activity was inconclusive: 100%.
`Cc1ccc(N2C(=O)c3ccc(C(=O)N4CCN(c5cccc(C)c5C)CC4)cc3C2=O)cc1` was tested, and the GTP binding activity was inactive: 91%.
`O=C(Cc1ccc(Nc2nc(=S)[nH]c3ccccc23)cc1)NC1CCCCC1` was tested, and the GTP binding activity was active: 66%.
For `O=c1c(-c2ccco2)[n+]([O-])c2ccccc2n1OCc1ccccc1[N+](=O)[O-]`, the GTP binding activity was inconclusive: 95%.
`CCOc1ccc(NC(=O)CC2C(=O)N(c3ccc(OC)cc3)C(=S)N2Cc2ccccn2)cc1` (stereo not drawn) was tested, and the GTP binding activity was inactive: 97%.
With `COc1ccccc1C/C(N)=N/OC(=O)COc1ccc2ccccc2c1` the GTP binding activity was inconclusive: 92%.
With `COC(=O)c1cc(C(=O)OC)cc(-n2c(C)cc(C(=O)COC(=O)CNS(=O)(=O)c3ccc(C)cc3)c2C)c1` the GTP binding activity was inactive: 97%.
For `Cc1cc(C)n(-c2nnc(NC34CC5CC(CC(C5)C3)C4)nn2)n1`, the GTP binding activity was inactive: 93%.
In the case of `Cc1cc(=S)cc(C)n1CCO`, the GTP binding activity is reported as inactive: 98%.
With `CSc1nnc(-c2cccc(C)c2)n1N` the GTP binding activity was inconclusive: 109%.
`CCOP(=O)(OCC)C(Nc1ccc(C)cc1)c1ccco1` (stereo not drawn) was tested, and the GTP binding activity was inactive: 99%.
`CC(CN1CCOCC1)OC(=O)c1ccc(Br)cc1` (stereo not drawn) was tested, and the GTP binding activity was inconclusive: 106%.
`CCn1c2ccc(C)cc2c2nc3cc(C(=O)O)ccc3nc21` was tested, and the GTP binding activity was inconclusive: 81%.
For `COc1cc(/C=N/Nc2ncnc3sc4c(c23)CCC4)ccc1O`, the GTP binding activity was inconclusive: 73%.
With `COCCn1c(SCCN2CCOCC2)nc2c1c(=O)[nH]c(=O)n2C` the GTP binding activity was inconclusive: 103%.
`COc1ccc(Oc2ncnc3c2ncn3Cc2ccccc2)cc1` was tested, and the GTP binding activity was inconclusive: 90%.
For `Cc1ccc(S(=O)(=O)N2CCC(NC(=O)c3ccccc3)CC2)cc1`, the GTP binding activity was inactive: 96%.
In the case of `Cc1nn(C)cc1CN(C)C(=O)CCc1nnc(CCC2CCCCC2)o1`, the GTP binding activity is reported as inactive: 98%.
For `O=C(c1cc2ccc([N+](=O)[O-])cc2oc1=O)N1CCOCC1`, the GTP binding activity was inactive: 96%.
In the case of `CCOC(=O)c1c(CSc2ccccc2)n(C)c2cc(Br)c(OCC(O)CNC(CO)(CO)CO)cc12` (stereo not drawn), the GTP binding activity is reported as inactive: 107%.
With `COc1cc(/C=C(/C#N)c2nc3ccccc3[nH]2)ccc1OCc1ccc(C(=O)O)o1` the GTP binding activity was active: 77%.
In the case of `Cc1csc(NC(=O)CSc2ccc3nnc(-c4ccncc4)n3n2)n1`, the GTP binding activity is reported as inconclusive: 85%.
With `CCOC(=O)c1nc(Nc2ccc(C(=O)OC)cc2)c2ccccc2n1` the GTP binding activity was active: 77%.
For `Cn1c(N)c(C(=O)COC(=O)CC2CC3CCC2C3)c(=O)n(C)c1=O` (stereo not drawn), the GTP binding activity was inconclusive: 96%.
In the case of `CCOCC(=O)Nc1ccccc1C(=O)O`, the GTP binding activity is reported as inactive: 100%.
`COc1cc(/C=C2/SC(N)=NC2=O)ccc1Oc1ccc([N+](=O)[O-])cc1[N+](=O)[O-]` was tested, and the GTP binding activity was inactive: 91%.
With `CCOC(=O)/C(=C/C=C1\Sc2cc(OCC)c(OCC)cc2N1CC)C(C)=O` the GTP binding activity was inconclusive: 77%.
`O=C(c1cc(COc2c(F)cccc2F)on1)N1CCc2ccccc2C1` was tested, and the GTP binding activity was inconclusive: 92%.
In the case of `N#Cc1cc2c(=O)n3ccccc3nc2n(CCCN2CCOCC2)c1=O`, the GTP binding activity is reported as inconclusive: 104%.
With `Cc1cc(C)n(CC(=O)N/N=C/c2cc(Br)cc([N+](=O)[O-])c2O)n1` the GTP binding activity was inconclusive: 85%.
In the case of `O=C(N/N=C/c1ccsc1)c1ccc2ccccc2n1`, the GTP binding activity is reported as inactive: 98%.
For `COc1cc(NC(=O)c2cc3ccccc3o2)c(OC)cc1Br`, the GTP binding activity was inconclusive: 105%.
With `Cc1nn(Cc2cccc(C(=O)Nc3ccn(Cc4ccccc4)n3)c2)c(C)c1[N+](=O)[O-]` the GTP binding activity was inconclusive: 94%.
With `COc1ccc(CC(=O)Nc2ccc(C(=O)Nc3nccs3)cc2)cc1OC` the GTP binding activity was active: 73%.
With `Cc1cc(C(=O)OCC(=O)Nc2c(F)cccc2F)c(C)n1-c1ccccc1` the GTP binding activity was inconclusive: 86%.
`Cc1cccc(NC(=O)NC(C)C(c2ccccc2)N2CCN(C)CC2)c1` (stereo not drawn) was tested, and the GTP binding activity was inactive: 105%.
For `CCCCN1CN=C(Nc2nc3ccccc3o2)NC1`, the GTP binding activity was inconclusive: 105%.
With `COc1cc(N2CCCC2)c(OC)cc1/C=C(/C#N)c1cccc(Br)c1` the GTP binding activity was inconclusive: 203%.
In the case of `N#Cc1sc2nc3c(c(-c4cccnc4)c2c1N)CCC3`, the GTP binding activity is reported as inconclusive: 99%.
For `Nc1nc(SCC(=O)NCCOCCO)nc2sc3c(c12)CCCC3`, the GTP binding activity was inactive: 98%.
For `CC(=O)c1sc(Nc2nc(C)cc(C)n2)nc1C`, the GTP binding activity was inconclusive: 105%.
`Cc1ccc(C)c(N2CCN(C(=O)Cn3c(=O)[nH]c4ccsc4c3=O)CC2)c1` was tested, and the GTP binding activity was inconclusive: 105%.
`Cc1nc(C)n(CC(=O)N2CCCC(C(=O)c3cccc4ccccc34)C2)n1` (stereo not drawn) was tested, and the GTP binding activity was inactive: 98%.
In the case of `c1nc(NCCN2CCOCC2)c2sc3nc(N4CCOCC4)c4c(c3c2n1)CCC4`, the GTP binding activity is reported as inconclusive: 88%.
`COc1ccc(CN=C2NN=C(c3ccccc3)CS2)cc1` was tested, and the GTP binding activity was inconclusive: 92%.
For `O=C(Nc1ccccc1N1CCOCC1)c1cccs1`, the GTP binding activity was inconclusive: 102%.
For `COc1ccc(C(=O)Nc2ccc3c(c2)Cc2ccccc2-3)cc1`, the GTP binding activity was inconclusive: 105%.
In the case of `CCc1c(C)sc(NC(=O)c2cnn3cccnc23)c1C#N`, the GTP binding activity is reported as inconclusive: 95%.
In the case of `CC(=O)NC(Cc1cccc(F)c1)C(=O)NC1CCN(c2nnnn2-c2ccccc2)CC1` (stereo not drawn), the GTP binding activity is reported as inactive: 97%.
With `CCOc1cc(C2Nc3ccccc3C(=O)N2c2ccccc2)ccc1O` (stereo not drawn) the GTP binding activity was inconclusive: 109%.
`Cc1n[nH]c(=S)c2nn(-c3ccccc3F)c(C)c12` was tested, and the GTP binding activity was inconclusive: 102%.
`Fc1cccc(CSc2ccc3nnc(-c4cccnc4)n3n2)c1` was tested, and the GTP binding activity was inconclusive: 79%.
For `CCC(C)C(NC(=O)c1ccccc1NC(=O)c1ccco1)C(=O)O` (stereo not drawn), the GTP binding activity was inactive: 100%.
`COc1cc2[nH]c(=O)n(CCC(=O)NCCC(C)C)c(=O)c2cc1OC` was tested, and the GTP binding activity was inactive: 100%.
For `CCn1cc(C(=O)N2CC(C)CC(C)C2)c(=O)c2cc(S(=O)(=O)N3CCOCC3)ccc21` (stereo not drawn), the GTP binding activity was inconclusive: 96%.
`CCN(CC)c1ccc(/C=C2/SC(=O)N(C(C)C)C2=O)o1` was tested, and the GTP binding activity was inconclusive: 108%.
For `CC(C)=CC(=O)OCC(=O)Nc1cc(C)ccc1C`, the GTP binding activity was inconclusive: 93%.
For `N#Cc1ccc(CSc2nnc3[nH]c(=O)cc(N)n23)cc1`, the GTP binding activity was inactive: 100%.
For `C/C(CC(=O)Nc1cc(Cl)ccc1Cl)=N\NC(=O)c1ccccc1Br`, the GTP binding activity was inactive: 96%.
`CCCOC(=O)NC1CCS(=O)(=O)C1` (stereo not drawn) was tested, and the GTP binding activity was inconclusive: 28%.
With `CC(C)CCNC(=O)C(C)N(C(=O)c1snc(C(N)=O)c1N)c1cnc2ccccc2c1` (stereo not drawn) the GTP binding activity was inactive: 94%.
In the case of `Cc1cccc2cc(C#N)c(NCCNC(=O)NC3CCCCC3)nc12`, the GTP binding activity is reported as inconclusive: 91%.
In the case of `COc1cc(/C=N/Nc2ccc(S(N)(=O)=O)cc2)cc(OC)c1OC`, the GTP binding activity is reported as inactive: 89%.
With `O=C(CCCO)c1ccc2c(c1)OCCO2` the GTP binding activity was inconclusive: 89%.
